Measurements: PubChem BioAssay AID360 (National Center for Advancing Translational Sciences (NCATS), 2006)
The campaign covered roughly 48,000 compounds. About 550 (1.1%) were called active. About 4% were inconclusive and are not listed. Cut-off read from the data, not from the text of the source: active = potency below about 15 µM; inconclusive = mostly about 16 µM to 33 µM; inactive = weaker than that. This is one part of the list.

target: Lysosomal acid glucosylceramidase (Homo sapiens) (UniProt P04062); test: Glucocerebrosidase; details: purified enzyme, resorufin glucoside fluorescence (screen aimed at inhibitors), 20 min;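 note: the screen sought inhibitors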
How it was run: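 Normal human glucocerebrosidase (0.2 nM final) was assayed with resorufin β-D-glucopyranoside (30 uM final) in 50mM citric acid/KH2PO4, 10mM sodium taurocholate, 0.01% tween-20, pH 5.9. Compounds were titrated; fluorescence (Ex 548, Em 600) read after 20 min at RT.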
Potency is the fitted concentration of half-maximal effect.

Sequence of UniProt P04062 (P04062 whole entry, looked up): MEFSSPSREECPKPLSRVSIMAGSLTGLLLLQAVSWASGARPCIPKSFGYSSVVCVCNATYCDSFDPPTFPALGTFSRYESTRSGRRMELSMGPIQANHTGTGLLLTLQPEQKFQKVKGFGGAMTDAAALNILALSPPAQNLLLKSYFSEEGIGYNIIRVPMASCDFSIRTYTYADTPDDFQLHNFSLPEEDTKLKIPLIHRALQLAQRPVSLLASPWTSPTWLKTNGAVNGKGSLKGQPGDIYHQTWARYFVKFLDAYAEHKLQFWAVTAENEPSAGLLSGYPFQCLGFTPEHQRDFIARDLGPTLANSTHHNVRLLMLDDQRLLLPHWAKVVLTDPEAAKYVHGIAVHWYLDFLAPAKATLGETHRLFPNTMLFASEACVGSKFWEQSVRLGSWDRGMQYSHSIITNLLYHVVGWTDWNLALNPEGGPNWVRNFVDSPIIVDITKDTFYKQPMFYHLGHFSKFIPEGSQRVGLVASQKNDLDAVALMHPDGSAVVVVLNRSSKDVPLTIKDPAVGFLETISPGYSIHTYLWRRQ

Potency, inactive:
CCOC(=O)N1CCN(C(=O)c2sc3nc(-c4ccc(F)cc4)cn3c2C)CC1 > 76.9 µM
CC1(C)OC(=O)C2(Cc3ccccc3N3CCCCC32)C(=O)O1 (stereo not given) > 76.9 µM
Cc1cc(C)c(NC2=NCC(=O)N2C2CCCCC2)c(C)c1 > 76.9 µM
O=C(CNS(=O)(=O)c1cccs1)N1CCCC1 > 76.9 µM
O=C(O)CC1NC(=O)N(c2ccc(Cl)cc2)C1=O (stereo not given) > 76.9 µM
CCOC(=O)c1cn(CC)c2ccc(S(=O)(=O)N3CCC(C)CC3)cc2c1=O > 76.9 µM
CCOC(=O)N1CCN(S(=O)(=O)c2cccc3nonc23)CC1 > 76.9 µM
Cc1ccc(S(=O)(=O)c2nc(-c3ccc(F)cc3)oc2SCC(N)=O)cc1 > 76.9 µM
CCOC(=O)c1[nH]c2ccc(OC)cc2c1NC(=O)C(C)N1CCC2(CC1)OCCO2 (stereo not given) > 76.9 µM
COc1cccc(-n2c(C)c(C(C)=O)c(C(C)=O)c2C)c1 > 76.9 µM
O=C(CN(C(=O)CCC(=O)Nc1nccs1)c1ccc(F)cc1)NCc1ccco1 > 76.9 µM
COc1ccccc1NC(=O)NCc1ccc2c(c1)OCO2 > 76.9 µM
Cc1cc(C)cc(N2C(=O)CC(n3ccnc3)C2=O)c1 (stereo not given) > 76.9 µM
COc1cccc(CN2CCCN(S(=O)(=O)c3ccc(Br)cc3)CC2)c1 > 76.9 µM
Cc1ccc(S(=O)(=O)N2CCCCC2C(=O)N2CCN(Cc3ccccc3)CC2)cc1 (stereo not given) > 76.9 µM
CCOC(=O)c1ccc(NC(=O)CC2OCCN(CC)C2=O)cc1 (stereo not given) > 76.9 µM
c1ccc2c(Cn3nnc4ccccc43)cccc2c1 > 76.9 µM
COC(=O)CN(c1cccc(C(C)=O)c1)S(C)(=O)=O > 76.9 µM
Cc1cc(C)c2cc(CN(Cc3ccc4c(c3)OCO4)Cc3nnnn3Cc3ccco3)c(=O)[nH]c2c1 > 76.9 µM
CCOC(=O)N1CCC(NC(=O)CC(NS(=O)(=O)c2ccc(C)cc2)c2ccco2)CC1 (stereo not given) > 76.9 µM
Cc1cc(C)c(C(=O)CN2C(=O)CCC2=O)cc1C > 76.9 µM
COc1cccc(NC(=O)Cn2c(SCC(=O)N3CCOCC3)nc3ccccc32)c1 > 76.9 µM
FC(F)Oc1cccc2cccnc12
CCOc1ccc2[nH]c(=O)c(CN(CCO)C(=O)c3ccccc3F)cc2c1 > 76.9 µM
COc1ccc(Cl)cc1NC(=O)CSc1nc(N2CCCCC2)nc(N2CCCCC2)n1 > 76.9 µM
C=CCn1c(CCNC(=O)c2cccs2)nnc1SCC(=O)Nc1cccc(C(C)=O)c1 > 76.9 µM
N=c1ccn(Cc2cccc(Cl)c2)cc1 > 76.9 µM
O=C(Nc1ccncc1)c1c(F)cccc1F > 76.9 µM
CCOc1ccc2[nH]c(C)c(CN3CCCCC3)c(=O)c2c1 > 76.9 µM
COc1cccc(CN2CCN(CC(=O)Nc3ccccc3Cl)CC2)c1
Cc1ccc(SC(C)C(=O)N2CCCC2)cc1 (stereo not given) > 76.9 µM
Cc1cccc2sc(NC(=O)CNS(=O)(=O)c3ccc(Br)s3)nc12 > 76.9 µM
CC(Sc1nnnn1C)C(=O)Nc1ccccc1-c1ccccc1 (stereo not given) > 76.9 µM
COCCN(C(=O)CNC(=O)c1cccs1)C(C(=O)NC1CCCC1)c1cccs1 (stereo not given) > 76.9 µM
COc1cc(C2c3c(oc4c(C)cc(C)cc4c3=O)C(=O)N2Cc2cccnc2)ccc1O (stereo not given) > 76.9 µM
CCNC(=O)Cc1ccc(NS(=O)(=O)c2ccc(F)cc2)cc1 > 76.9 µM
O=C1CC(c2cccc(Cl)c2)CC(O)=C1C=NCCCO (stereo not given) > 76.9 µM
COc1ccccc1-c1cc(C(=O)Nc2cccnc2)no1 > 76.9 µM
CCOC(=O)N1CCN(C(=O)CC(=O)Nc2ccc3nc4n(c(=O)c3c2)CCCCC4)CC1 > 76.9 µM
Cn1nnc2cc(C(=O)N3CCCCCC3)ccc21 > 76.9 µM
COc1ccc(CNC(=O)c2cc(-c3ccccc3O)n[nH]2)cc1 > 76.9 µM
COc1ccc(-c2ccc(-c3noc(-c4ccncc4)n3)c(OC)n2)cc1 > 76.9 µM
COc1ccccc1NC(=O)CSc1nnc(-c2ccoc2C)n1CCc1ccccc1 > 76.9 µM
CC(=O)Nc1ccc(S(=O)(=O)c2ccc(N)cc2)cc1 > 76.9 µM
O=C(NCc1ccc2c(c1)OCO2)c1ccc(S(=O)(=O)NCC2CCCO2)cc1 (stereo not given) > 76.9 µM
